Test results from the supplement of paper PMC3334620.
Whole data set: some 33,000 sequences, median “E-score (-0.5 to 0.5)” near -0.013, cut for the highest 2% near 0.3. The list shows a part of the results.

The sequences below were run against T1, Msn1 (UniProt P22148) (assay: PBM E-score (8-mer binding enrichment) (E-score (-0.5 to 0.5)); higher = stronger / more preferred TF binding; most listed sequences are background and not binding sites). Conditions: protein concentration: 200 nM; construct: GST-full length.
T1 sequence: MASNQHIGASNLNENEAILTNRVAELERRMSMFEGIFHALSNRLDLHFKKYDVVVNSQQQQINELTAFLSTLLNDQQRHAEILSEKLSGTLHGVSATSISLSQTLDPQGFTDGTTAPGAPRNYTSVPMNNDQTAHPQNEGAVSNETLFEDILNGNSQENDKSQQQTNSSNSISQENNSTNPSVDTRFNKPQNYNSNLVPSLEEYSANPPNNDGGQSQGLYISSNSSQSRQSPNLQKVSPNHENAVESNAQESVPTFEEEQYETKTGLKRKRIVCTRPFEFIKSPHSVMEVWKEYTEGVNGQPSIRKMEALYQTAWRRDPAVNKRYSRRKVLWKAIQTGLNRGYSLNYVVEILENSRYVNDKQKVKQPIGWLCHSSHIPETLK
Procedure, shortened: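 Each ungapped eight-base word and its reverse complement, pooled, received an E-score from the Universal PBM Analysis Suite. Underlying scans, normalised with masliner, recorded fluorescent anti-GST bound to GST-tagged yeast transcription factors. These were applied at about 100-200 nM to universal all-10-mer Agilent arrays double-stranded by primer extension.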

Sequence	PBM E-score
GCAAGAAA	0.0128
ATCGTATC	0.00198
AACTGCCG	-0.0718
CGCAAGAA	0.156
CCGAGACG	0.207
AATACCGG	0.0869
GATGGCAA	-0.0517
GGACGGAC	0.0267
AGTCCTTG	0.278
CGCCGCTA	-0.078
AGTGCCCA	-0.0834
TAAAGCTA	-0.0093
GCAGGGCC	-0.325
AACGGTCA	-0.0795
GCACAGTA	-0.0259
CGACTTTC	0.132
CATGGGAC	0.218
CTCACTAA	-0.145
CTAATATC	0.0983
GCCAGATA	-0.123
CCGTCAGC	-0.145
ACCATCAA	-0.0532
CCTATAGC	-0.0623
ACGTCATA	0.235
CGCTCAGA	-0.138

Sequence	PBM E-score
CCTTCGGA	0.21
AACTGCCA	-0.067
AGCGCATA	0.034
CTTAGGTC	0.0153
ATCCCACG	-0.0996
AGCATACG	-0.203
GGTCAGTA	0.0314
GGATGCCA	-0.144
GGGAATAC	-0.0028
CCACTTGA	-0.0858
ACAGTCTA	0.0479
TAGCACTA	-0.00886
GCTATTAC	0.0567
CGAGGGGA	-0.0585
CGTTAATC	0.0604
ATCCCCCG	-0.325
CTAAACAA	-0.0713
ACCAACCT	-0.0991
CGGGGCTC	-0.214
AGGTAAAT	0.0451
GGTGATAA	-0.12
AAATCCGG	0.168
GGGAAACC	-0.0351
GAACCGAA	0.105
AAGTTGAC	-0.0576

Sequence	PBM E-score
GGAGCAAC	-0.0393
ACAGCGCT	-0.0175
CATCACCC	-0.282
GTGAAAAC	0.0103
AGCGAAGC	-0.217
CAAAAGCA	0.0629
CAGGAAAC	0.142
AACTTACG	0.077
TTAATCAA	0.175
CCGAGACC	-0.0572
GTACTATA	0.233
CTTCATCC	-0.176
AGAATCAT	0.0794
CGGCCTTA	0.0691
ACAAGTGC	-0.173
CTCGAGCA	0.0767
AGCGATGC	-0.276
ATTGGTAA	0.00511
GCGTGGCC	-0.227
AACACCCT	-0.182
ACAGATGA	-0.0451
AAACCAGA	-0.12
ACGGGGAA	-0.147
CCAGTGTC	0.0998
GGACTGAA	0.0835

Sequence	PBM E-score
ACGGAATG	-0.0132
AGCGGTTC	-0.113
ACACCTAA	-0.0102
CAGAAACA	0.0552
GCAAACTA	0.154
AATCCGAT	0.249
CAAAACGG	0.114
AAACCGAC	0.0136
GCTCTTCC	-0.186
CCTAACCG	-0.124
ATCTCTGA	-0.00064
ATTCATCG	0.0126
ACACTGAG	-0.00755
CGTGCCGC	-0.0316
ACTTGAAG	0.127
CTAAATGA	0.137
CCGCGGGC	0.0321
AAGCCCTC	-0.201
TCATAAAA	0.172
AAAGTGGT	-0.0362
ACACATAC	0.139
ATCAAGCC	0.0134
CAATTGCA	0.0191
GATGAGCA	0.0845
ACGGACGT	0.0913

Sequence	PBM E-score
CACAAAGC	0.161
AATAGAAA	0.00219
GTCCGCAC	0.157
ATGTGCGC	-0.0939
AGGCGTAG	-0.189
CCCGACCA	-0.052
CGCTCGGC	-0.0854
CAGTGGAG	-0.0685
CGGCTTCA	-0.0614
ACAAGCAG	0.0727
CACTTGCG	0.0135
CAGTGAGG	-0.251
GGTTCGAA	0.116
CCTCTCAA	-0.144
CCCCGCAA	-0.0223
CCACCTTC	-0.34
CGGATTTC	0.109
GAACCCTA	0.0189
AGAGTTTC	-0.0462
CAGGAGTA	-0.152
AAATCTCG	0.121
TCAGGGGA	-0.0694
AGTCCCAT	0.0477
TCTGTCCA	0.363
TACATGCA	0.0757

Sequence	PBM E-score
AACGAATC	0.106
CCGTGTTC	0.169
TACTCAAA	0.0232
CCAGCCTA	-0.386
ACCGATCA	0.0723
ACTTTGCA	0.119
ATTGGTAC	0.173
ACCCAACT	-0.114
AATTGTTA	0.0923
CAATAAAC	0.0413
AACCCCGC	-0.186
CAAAAACA	0.175
AATGCTCG	0.0488
CCCTTCCA	-0.255
ACGATATC	-0.0752
GATTGAAC	0.0403
ACATATCC	0.233
ACTGTTCC	-0.0375
GAGCCTCC	-0.224
TAGATGCA	-0.0693
AGCTTTGC	-0.152
AAATTGTC	0.449
AAGTCCCG	0.283
ACGAGAAA	0.129
AAGTTAAT	-0.0283

Sequence	PBM E-score
ACGTTACA	0.146
TCTCGAAA	0.201
CGGGCTAG	-0.185
GGTGGAAC	-0.235
AACAGCGG	-0.0502
TGCGGAAA	0.0764
AGTCGCGG	-0.0858
CACTAGAG	-0.0404
CACCGAGA	-0.047
CCAACTGC	-0.167
AAGCGGGA	-0.106
ACAGCGGA	0.0546
AACCGCAC	-0.0736
GGGTCAGA	-0.256
CTCTACAA	-0.0301
AGATACAA	0.277
CATCATTA	0.189
CACAATGG	0.0832
GAGCATGC	-0.114
AGCATATA	0.0198
AGCGGCGG	-0.0477
TTATATAA	0.271
CCTTGATC	-0.124
CGCCCCAG	-0.178
ACATGAAG	0.131

Sequence	PBM E-score
CATAAACG	0.213
ACACATCG	0.043
ATAACGGC	-0.028
CTGTCGCA	-0.0442
ATTGCTTA	-0.0277
ACCAGAAT	0.0369
ATTTGCAC	0.125
CAGCTTAG	-0.0423
GGCGTCAA	-0.0643
ATTTTGTG	0.144
ACCCGCAT	0.00591
GCCCGCCA	-0.199
CCACAGCG	-0.034
ATACTCAC	0.00337
CGTACATC	0.00439
ATGAGGGG	-0.0997
GAGTAAGC	-0.106
GCACATGC	0.0129
GATTAGAC	0.0588
CCGGATTA	0.0748
AGCGGACC	-0.132
GGTGCTAC	-0.204
AAGCCAGC	-0.094
CCGGCCTA	0.0234
CTTCTATC	-0.0795

Sequence	PBM E-score
ATACTGTG	0.0964
ATTACTCG	0.209
ATCATTAC	0.118
ATAGTCGC	-0.0149
CAACCCTA	-0.0797
ATGTGAGA	0.0507
CGTGGCTC	-0.284
ACCACTCA	-0.194
CCGCATTC	-0.0341
CCTCGCCC	-0.162
CGCGGCCA	-0.123
AGAACTTG	0.0582
AATGGCTG	-0.0631
GTAGCTTA	-0.0116
CATCCTCC	-0.163
ACAAGAAC	0.268
TATCTACA	0.195
CCGCCATC	-0.267
GAGGTAAC	0.0391
ACGGGGCT	-0.405
CTAATCAG	-0.0717
GTTGATTA	0.135
CAGCACAA	0.0371
GTGAGCAC	-0.107
CAGGTGCA	-0.0506

Sequence	PBM E-score
CAAATCGG	0.0712
CAACATAA	0.289
CACGATCG	0.0495
AATGGGAC	0.0849
ATTATGAC	0.129
CGGGACCC	-0.265
CTTGAGGA	-0.132
AGCGCCCC	-0.434
CTTTGTTA	0.215
CACGCTCG	-0.167
AGTGCAAA	0.186
ACCCGTCA	-0.235
AAATACAC	0.0164
CAACTGCA	0.0518
CGGTGAAC	0.0446
ACGTCACA	0.109
CACGTCTG	0.213
CAGCTAGG	-0.135
CGATATAG	0.0828
GCGGAACA	-0.0512
GGGCGACC	-0.306
AGGGTTAG	-0.279
CGGACTCC	-0.0227
GTCGTCCA	0.11
ACATATGA	0.311

Sequence	PBM E-score
AAGACCGG	0.0652
CGATAAAA	0.243
ACCCTTAC	-0.0541
CCTCAGGC	-0.325
AACCTTGC	-0.0732
CTTTCAAC	0.0513
CATGCTCC	-0.204
AGTGCGGG	0.0108
AGTACTAG	0.266
CGACCAAG	-0.114
TGGAAAAA	0.0968
AGAACAGA	0.0277
CTTTTGAC	0.0513
GAGAATCA	-0.0362
TATCCGCA	0.157
GATGTCAA	0.0785
ATTCCAGA	0.0673
CATGGGGA	-0.00533
GAAGTGGC	-0.127
CCTACGGA	-0.257
GCCGTTTA	0.0426
CGTTTGTA	0.189
AGGCGCTG	0.00798
ATGTTCAC	0.129
CCGACATC	0.0379

Sequence	PBM E-score
CTCTTCAG	0.136
CGTTATTA	0.0658
ACAAGGAC	0.358
CTCGTCTC	-0.0387
AGACCTCC	-0.313
CAAGCATC	0.0204
ATCTGGTA	0.0476
GTAAGTTA	-0.0452
ACGTACGC	-0.158
ATGCATGG	-0.049
TATATATA	0.209
AGGGAATA	-0.0115
GTTCTTGA	-0.0866
GCGTCGAC	0.102
CATCCATC	-0.247
AATCCTGA	0.15
CATGTTCA	-0.0172
CCCTTACA	0.11
CCGAGTGC	0.00444
CACGAATC	-0.0434
CGTATACA	-0.0227
ATCGTTCG	0.0395
GAGCCCTA	-0.209
ATTAGTAA	0.141
CTATTCCC	-0.111

Sequence	PBM E-score
ATTGGGAA	0.0707
GACGTTCA	0.0721
GCGGCCCA	-0.184
TGCTTTAA	0.151
CTACATTC	-0.121
GGAAAACC	-0.157
GCCCGTCA	-0.234
CTGGAAAC	0.0093
GCTACACA	-0.169
CAGCGCGC	-0.00784
AACGACTC	-0.193
ACCGGCAG	-0.195
CACTTCTG	-0.0201
GCTACGAC	0.0207
AGCTGCTA	-0.118
CACTAATC	0.0285
CATTTTTA	0.109
TAGAGCCA	-0.192
CATGAGTC	0.0695
AATGAATC	0.0813
AAACAGCT	0.0295
GAAGCAGA	-0.178
GAAGCCAC	-0.105
GATGAATA	0.069
AGGTACGA	-0.0249

Sequence	PBM E-score
CACACTTC	0.102
CCCGTCAA	-0.133
AGTAGACA	0.228
CATTGCCG	0.0253
AACCTAAA	0.121
AGATGATA	0.259
AGCAGGAG	-0.123
ATTGTGTA	0.14
AGAGTCAG	-0.0137
GTGTCGAA	0.0799
CCACCACA	-0.214
AACAAAGG	0.00627
CCGACTTA	0.168
CTTTTTGA	0.135
CCTTGACA	0.0303
ACTTAGCC	-0.0569
CGCTGTTA	-0.124
AATGTGTG	0.0774
ACATATCT	0.142
